Results as given in publication PMC4336329 (PLoS ONE, 2015).
Screen size: about 310,000 compounds; about 2,200 (0.71%) showed an effect of 50% or more. Effects have a minus sign here. Some of the results follow.

Biological target: human ether-à-go-go-related gene (hERG) potassium channel (human, UniProt Q12809)
Test: primary screen, population patch clamp on CHO cells stably expressing hERG

human ether-à-go-go-related gene (hERG) potassium channel, sequence (Q12809 whole entry, looked up): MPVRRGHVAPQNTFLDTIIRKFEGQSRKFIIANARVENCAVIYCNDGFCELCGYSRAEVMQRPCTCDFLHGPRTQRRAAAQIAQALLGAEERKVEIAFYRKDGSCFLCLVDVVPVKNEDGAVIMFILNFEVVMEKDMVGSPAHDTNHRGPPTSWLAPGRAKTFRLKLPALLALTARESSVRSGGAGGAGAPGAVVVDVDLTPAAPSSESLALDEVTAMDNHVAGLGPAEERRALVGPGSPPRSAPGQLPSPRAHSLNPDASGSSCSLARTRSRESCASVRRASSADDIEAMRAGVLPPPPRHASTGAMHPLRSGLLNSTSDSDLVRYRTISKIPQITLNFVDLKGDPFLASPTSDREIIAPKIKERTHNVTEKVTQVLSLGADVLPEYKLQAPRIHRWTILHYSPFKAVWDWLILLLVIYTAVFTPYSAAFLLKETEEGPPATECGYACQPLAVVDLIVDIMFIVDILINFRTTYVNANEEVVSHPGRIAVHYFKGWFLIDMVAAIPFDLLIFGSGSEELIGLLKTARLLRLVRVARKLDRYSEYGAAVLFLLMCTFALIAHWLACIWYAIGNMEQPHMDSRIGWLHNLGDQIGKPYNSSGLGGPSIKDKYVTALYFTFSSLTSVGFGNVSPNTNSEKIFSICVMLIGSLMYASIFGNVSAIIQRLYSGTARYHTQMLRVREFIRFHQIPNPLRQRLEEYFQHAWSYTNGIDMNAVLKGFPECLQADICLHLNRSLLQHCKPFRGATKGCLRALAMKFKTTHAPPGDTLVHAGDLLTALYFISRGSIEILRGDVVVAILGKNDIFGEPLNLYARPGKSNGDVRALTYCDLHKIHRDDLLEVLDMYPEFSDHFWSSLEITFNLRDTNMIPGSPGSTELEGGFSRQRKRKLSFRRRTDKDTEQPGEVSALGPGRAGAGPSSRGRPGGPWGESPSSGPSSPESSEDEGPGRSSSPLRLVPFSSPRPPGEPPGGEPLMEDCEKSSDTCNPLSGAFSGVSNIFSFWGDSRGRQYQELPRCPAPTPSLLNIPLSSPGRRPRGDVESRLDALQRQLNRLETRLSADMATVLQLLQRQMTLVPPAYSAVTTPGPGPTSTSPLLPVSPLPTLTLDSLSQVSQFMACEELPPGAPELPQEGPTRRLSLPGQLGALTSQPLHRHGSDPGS

Row | Compound | hERG current change (%, negative = inhibition) at 1uM [%]
1 | CCOc1ncccc1C(=O)OCC(=O)Nc1c(C)cc(C)cc1C | 8.45
2 | CCOC(=O)c1c(C)n(C)c2ccc(O)c(CN3CCN(C)CC3)c12 | 4.88
3 | COc1ccc(C(=O)Oc2cccnc2)cc1 | 6.22
4 | Cc1ccc(NC(=O)CC2S/C(=N/N=C3/NC(=O)CS3)NC2=O)cc1 (stereo not drawn) | 14.6
5 | Cc1cccc(OCC(O)CN2CCN(c3ccccn3)CC2)c1C.Cl (stereo not drawn) | 3.38
6 | O=C(CSc1nnc(-c2cccs2)n1-c1ccccc1)c1ccc2c(c1)OCCO2 | 8.47
7 | CN(C)c1ccc(CNC(=O)CCS(=O)(=O)c2ccc3c(c2)oc(=O)n3C)cc1 | 15.5
8 | Cc1ccc(CN2CCN(/N=C/c3cccs3)CC2)cc1 | 4.22
9 | CC(=O)NC(=S)Nc1ccc(-c2nc3ccc(C)cc3s2)cc1 | 11.9
10 | NS(=O)(=O)c1cccc(NC(=O)COC(=O)/C(=C/c2cccs2)c2cccs2)c1 | 5.57
11 | CC(=O)N(C)c1ccc(NS(=O)(=O)Cc2ccccc2)cc1 | 3.25
12 | O=c1[nH]c(/C=C/c2ccccc2)c([N+](=O)[O-])c(=O)[nH]1 | 2.27
13 | CN1CCC(=NNC(=O)c2ccco2)CC1 | -2.11
14 | CC(=O)Nc1nc2c(s1)CCc1ccccc1-2 | 18.9
15 | Cc1ccc(OCC(=O)Nc2ccccc2F)cc1 | 9.1
16 | CCCNC(=O)NC1CCCc2ccccc21 (stereo not drawn) | 6.62
17 | NNC(=O)c1cnn(-c2ccccc2)c1-n1cccc1 | 8.5
18 | CC(C)CN(C(=O)CSc1nc2ccccc2o1)c1c(N)n(Cc2ccccc2)c(=O)[nH]c1=O | 8.31
19 | CCCCCNC(=O)N[C@H](C(=O)O)C(C)C | 1.83
20 | CC(C)CC(=O)c1c[nH]c(C(=O)NCc2ccccc2)c1 | 7.97
21 | COc1ccccc1P(=O)(Cc1ccccc1[N+](=O)[O-])c1ccccc1 (stereo not drawn) | 8.3
22 | COc1ccc(CCNC(=O)C2CCN(S(=O)(=O)c3ccc(C)cc3)CC2)cc1 | 5.93
23 | O=C(C1CCCC1)N1CCN=C1SCc1cccc([N+](=O)[O-])c1 | 2.37

Row | Compound | hERG current change (%, negative = inhibition) at 1uM [%]
24 | Cc1cc(C)c(C)c(S(=O)(=O)N2CCN(C(=O)CCc3nc4ccccc4c(=O)[nH]3)CC2)c1C | 10.8
25 | COc1cccc(N2CCN(c3ncnc4c3[nH]c3ccc(F)cc34)CC2C)c1 (stereo not drawn) | 2.12
26 | Cc1noc(C)c1COc1ccc(C(=O)N2CCN(c3ccccc3O)CC2)cc1 | 15.3
27 | CCOc1nc(NCCO)nc(Nc2ccccc2F)n1 | 19.2
28 | [O-]/C(=C(\C(=S)NCc1ccc2c(c1)OCO2)[n+]1ccccc1)c1ccc(Cl)s1 | 17.3
29 | Cc1ccc(C(=O)N2CCCC2)cc1S(=O)(=O)Nc1ccccc1 | -8.52
30 | Cc1ncoc1C(=O)N1CCCC(C(=O)c2ccc(-c3ccccc3)c(F)c2)C1 (stereo not drawn) | 4.05
31 | O=C(Nc1nc2ccccc2[nH]1)c1ccc(F)c(S(=O)(=O)N2CCOCC2)c1 | -14.4
32 | O=C(NCc1cccnc1)c1ccc(COc2ccccc2Br)o1 | 8.81
33 | Cc1ccc(N/N=C2/CCCNC2=O)cc1 | 16.9
34 | CCCCCc1ccc(CC(=O)O)cc1 | 14.8
35 | CCCCc1c(C)nc2ccc(C(=O)OCC)cc2c1Cl | 15.5
36 | CCCc1nc2oc3c(=O)[nH]cnc3c2c2c1COC(C)(C)C2 | 12.8
37 | Cc1cc(C)cc(N(CCC#N)C(=O)COC(=O)C2=COCCO2)c1 | 7.44
38 | CCO[C@@H]1OC(C(=O)Nc2ccccc2)=C[C@H](C)[C@H]1CCCO | -3.86
39 | CC(=O)N1N=C(c2ccccc2)CC1c1cccc([N+](=O)[O-])c1 (stereo not drawn) | 11.1
40 | O=C(Nc1ccc(N=Nc2ccccc2)cc1)c1ccc(Cl)cc1Cl | 6.74
41 | COC(=O)c1ccsc1NC(=O)CSc1nnnn1-c1ccccc1SC | -4.16
42 | O=C(NNC(=O)c1cc(F)c(F)cc1Cl)c1ccc(NS(=O)(=O)c2cccs2)cc1 | 13.9
43 | CC(Oc1cc(Cl)ccc1Cl)C(=O)N/N=C\c1ccnn1C (stereo not drawn) | 16.6
44 | COc1ccc(CNCc2cc(OC)ccc2OC)cc1.O=C(O)C(=O)O | -6.85
45 | O=[N+]([O-])c1ccc(CN2C=NS(=O)(=O)c3ccccc32)cc1 | -2.86
